Data: publication PMC4336329 (PLoS ONE, 2015)
Among all 310,000 compounds or so, about 14,000 (4.5%) showed an effect of 50% or more. The effect is printed as a negative number. Some of the results follow.

Target: human ether-à-go-go-related gene (hERG) potassium channel (human, UniProt Q12809)
Test: primary screen, population patch clamp on CHO cells stably expressing hERG
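Also: peak tail current of the secondary pulse compared with the same well before compound.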

human ether-à-go-go-related gene (hERG) potassium channel, sequence (Q12809 whole entry, looked up): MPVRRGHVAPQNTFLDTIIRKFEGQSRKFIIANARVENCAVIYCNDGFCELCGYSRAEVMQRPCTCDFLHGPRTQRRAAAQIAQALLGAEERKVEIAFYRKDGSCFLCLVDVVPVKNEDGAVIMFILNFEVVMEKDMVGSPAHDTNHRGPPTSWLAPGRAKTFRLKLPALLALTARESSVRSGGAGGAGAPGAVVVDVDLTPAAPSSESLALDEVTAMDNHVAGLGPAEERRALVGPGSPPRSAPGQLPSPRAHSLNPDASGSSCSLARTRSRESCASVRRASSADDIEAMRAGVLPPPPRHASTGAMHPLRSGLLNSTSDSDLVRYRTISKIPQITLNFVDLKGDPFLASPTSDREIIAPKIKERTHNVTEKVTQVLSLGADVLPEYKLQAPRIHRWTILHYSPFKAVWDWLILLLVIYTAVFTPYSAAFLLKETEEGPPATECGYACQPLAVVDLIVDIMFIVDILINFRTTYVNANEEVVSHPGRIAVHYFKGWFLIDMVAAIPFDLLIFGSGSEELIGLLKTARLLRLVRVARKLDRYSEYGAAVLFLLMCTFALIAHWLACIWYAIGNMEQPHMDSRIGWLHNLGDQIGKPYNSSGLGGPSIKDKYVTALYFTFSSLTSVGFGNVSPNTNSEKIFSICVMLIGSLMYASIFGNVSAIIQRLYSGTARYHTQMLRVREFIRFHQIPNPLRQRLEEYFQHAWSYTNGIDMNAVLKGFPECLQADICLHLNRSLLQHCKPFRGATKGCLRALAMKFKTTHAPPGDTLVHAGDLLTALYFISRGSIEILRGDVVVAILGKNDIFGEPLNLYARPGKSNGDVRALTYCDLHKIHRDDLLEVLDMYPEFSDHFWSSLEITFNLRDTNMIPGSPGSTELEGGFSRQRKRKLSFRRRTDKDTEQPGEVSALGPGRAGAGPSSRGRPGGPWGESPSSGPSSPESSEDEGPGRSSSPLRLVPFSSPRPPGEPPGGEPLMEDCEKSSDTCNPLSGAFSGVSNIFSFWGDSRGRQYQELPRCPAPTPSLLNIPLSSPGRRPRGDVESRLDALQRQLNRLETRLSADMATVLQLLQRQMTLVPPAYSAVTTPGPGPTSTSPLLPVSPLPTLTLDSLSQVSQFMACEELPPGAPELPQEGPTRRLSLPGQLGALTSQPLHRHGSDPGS

Structure (SMILES)	hERG current change (%, negative = inhibition) at 10uM [%]
CCN(CC)Cc1c(C(=O)N/N=C/c2c(Cl)cccc2Cl)nnn1-c1nonc1N	11.8
COCCN1CCN(C(=O)c2ccc3oc(CCc4ccccc4)nc3c2)CC1	-30.1
COCCCNC(=S)NCCNc1nc2cc(C)c(C)cc2cc1C#N	-2.23
CCCS(=O)(=O)c1c(S(=O)(=O)CCC)c2cc(CC)ccn2c1C(=O)OC	-29.2
COC(=O)/C(=C/c1c[nH]c2ccccc12)NC(C)=O	6.31
Cc1ccc(S(=O)(=O)N2CCCCC2)cc1NC(=O)c1cc(=O)[nH]c2ccccc12	-6.61
O=C(O)c1ncc(-c2ccccc2)cn1	2.35
Cc1cccc(OCC(=O)Nc2nc3ccc([N+](=O)[O-])cc3s2)c1	15.6
COC(=O)c1ccc(C(=O)OC)c(NC(=O)CSCc2ccccc2Br)c1	3.9
O=C(Nc1ccc(Cl)c(NC(=O)c2cccs2)c1)c1ccco1	-10.6
NC(=S)NNc1cc(Cl)cc(Cl)c1	-9.77
OC(C#CCN1CCOCC1)c1cccs1 (centres unmarked)	11.6
COc1ccc(CCN2C(=S)N(C)C(=O)C2CC(=O)Nc2ccc(F)cc2)cc1 (centres unmarked)	4.77
CCOC(=O)C(=CNc1ccc(Cl)cn1)C(=O)OCC	19
O=C(O)CCc1ccc(-c2ccc(Cl)cc2)n1NC(=O)c1ccc(O)cc1	48.2
COc1ccc(N(CC(=O)Nc2ccccc2C(F)(F)F)C2=NC3CS(=O)(=O)CC3S2)cc1 (centres unmarked)	-25.1
Cc1cc(-c2cccs2)nc(-n2cccc2)n1	12
CC(=O)Nc1cc(NC(C)=O)cc(C(=O)OC(C)C(=O)Nc2ccc(S(=O)(=O)N3CCCC3)cc2)c1 (centres unmarked)	-9.78
CCCCc1ccc(NC(=S)N2CCN(C)CC2)cc1	-33.8
COc1ccccc1C(N)=S	17
CCc1cc(=O)oc2cc(OCC(=O)N3CCC(C(N)=O)CC3)ccc12	9.13
CCOc1cc2c(C#N)c(N(CC)CC)nc(N)c2c(N)n1	-14.8
CCOC(=O)N1CCN(c2c(NCCCOC(C)C)c(=O)c2=O)CC1	-19.7
O=C(Nc1cccc([N+](=O)[O-])c1)C1CC(=O)N(Cc2ccccc2)C1 (centres unmarked)	-53.2
O=C(NNc1c(Cl)cncc1Cl)c1sccc1Cl	4.01
CN(C)C(CNC(=O)c1cccs1)c1cccnc1 (centres unmarked)	18.7
